Data: article PMC4336329 (PLoS ONE, 2015)
The campaign covered roughly 310,000 compounds. About 14,000 (4.5%) showed an effect of 50% or more. Effects have a minus sign here. The list shows a part of the results.

Target: human ether-à-go-go-related gene (hERG) potassium channel (human, UniProt Q12809)
Assay: primary screen, population patch clamp on CHO cells stably expressing hERG
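Further: peak tail current of the secondary pulse compared with the same well before compound.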

Sequence of human ether-à-go-go-related gene (hERG) potassium channel (Q12809 whole entry, looked up): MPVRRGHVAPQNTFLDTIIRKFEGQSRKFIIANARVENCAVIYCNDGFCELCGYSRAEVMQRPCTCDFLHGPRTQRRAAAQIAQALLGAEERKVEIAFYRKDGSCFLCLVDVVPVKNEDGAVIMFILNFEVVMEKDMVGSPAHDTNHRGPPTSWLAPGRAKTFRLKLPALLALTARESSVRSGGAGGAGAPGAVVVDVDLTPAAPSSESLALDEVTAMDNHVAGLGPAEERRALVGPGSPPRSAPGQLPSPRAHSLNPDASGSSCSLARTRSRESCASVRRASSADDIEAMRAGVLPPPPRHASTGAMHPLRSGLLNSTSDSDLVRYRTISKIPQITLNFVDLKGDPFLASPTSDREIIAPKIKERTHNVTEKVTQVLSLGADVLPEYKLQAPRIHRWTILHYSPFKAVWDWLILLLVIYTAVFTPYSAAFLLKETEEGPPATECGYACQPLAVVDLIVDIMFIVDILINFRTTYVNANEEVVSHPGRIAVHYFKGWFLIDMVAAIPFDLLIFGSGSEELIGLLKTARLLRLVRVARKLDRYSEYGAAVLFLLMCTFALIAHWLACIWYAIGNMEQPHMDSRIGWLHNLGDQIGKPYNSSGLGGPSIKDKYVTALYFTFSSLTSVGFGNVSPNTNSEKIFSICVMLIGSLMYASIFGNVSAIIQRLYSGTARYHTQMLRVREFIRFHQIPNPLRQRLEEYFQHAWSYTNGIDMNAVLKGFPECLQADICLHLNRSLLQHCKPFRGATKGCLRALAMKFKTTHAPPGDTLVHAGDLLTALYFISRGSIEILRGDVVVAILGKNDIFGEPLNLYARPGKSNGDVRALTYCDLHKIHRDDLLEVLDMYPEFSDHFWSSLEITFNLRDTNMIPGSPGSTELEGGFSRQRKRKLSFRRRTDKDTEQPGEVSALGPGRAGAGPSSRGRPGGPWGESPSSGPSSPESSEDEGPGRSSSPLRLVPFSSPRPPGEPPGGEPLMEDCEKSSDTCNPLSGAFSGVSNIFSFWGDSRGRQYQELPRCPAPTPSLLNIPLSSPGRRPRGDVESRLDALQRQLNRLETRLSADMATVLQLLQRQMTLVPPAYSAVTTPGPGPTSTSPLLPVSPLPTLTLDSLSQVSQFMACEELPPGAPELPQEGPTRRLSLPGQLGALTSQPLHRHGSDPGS

Row | Compound | hERG current change (%, negative = inhibition) at 10uM [%]
1 | Cc1ccc(C)c(S(=O)(=O)N2CCCCC2CCNC(=O)C(=O)NC2CC2)c1 (stereo not shown) | -12.2
2 | Cc1cc(=O)n(CCc2ccccc2)c(O)c1C#N | 24.7
3 | O=C1CC[C@@H](O)CCN1CC[C@H](Sc1ccccc1)c1ccccc1 | -10.4
4 | CCCCc1ccc(S(=O)(=O)N/N=C(/C)c2ccncc2)cc1 | 16.7
5 | CCCOc1ccc(C2C(=O)N(C3CCCCC3)CC(=O)N2C2CC2)cc1OC (stereo not shown) | 0.517
6 | COc1cc(NS(=O)(=O)c2ccc(NC(=O)/C(=C/c3ccccc3Cl)NC(=O)c3ccccc3)cc2)nc(OC)n1 | 35.4
7 | O=C(C1CC1)N1CCCN(C(=O)C2CC2)CC1 | 16.3
8 | COc1cc2nc(NCCCN3CCN(C)CC3)n3nc(-c4ccccc4)nc3c2cc1OC | 0.193
9 | O=C(COc1ccc(Br)cc1)NCCCN1CCCC1=O | -14.3
10 | O=C(CN1C(=O)C2C3C=CC(C3)C2C1=O)NCc1ccccc1 (stereo not shown) | 5.59
11 | Cc1cc(OCC(=O)Nc2ccc(OCc3ccccc3)cc2)nc(C(C)C)n1 | 3.36
12 | CC1Cc2ccccc2N1C(=O)CSc1nnnn1Cc1ccccc1 (stereo not shown) | -24.1
13 | CCOC(=O)C1CCN(S(=O)(=O)c2ccccc2[N+](=O)[O-])CC1 | 2.39
14 | CCn1nc(C)c(NC(=O)/C=C/c2ccc(OC)c(COc3ccc(Br)cc3)c2)c1C | -6.09
15 | CCN1C(=O)[C@@H]2[C@@H](c3ccc(-c4ccc(OC)cc4)c(OC)c3)N3CCC[C@@]3(C(=O)OC)[C@@H]2C1=O.O=C(O)C(F)(F)F | -12.7
16 | COC(CNC(=O)Cn1ncc2ccsc2c1=O)OC | 15.7
17 | NC(=S)N/N=C1\CC(n2nnnc2-c2ccccc2Cl)C2COC1O2 (stereo not shown) | -14.4
18 | Cn1c2ccccc2c2cc(/C=N/NC(=O)c3cc(O)ccc3O)ccc21 | 4.48
19 | Cc1ccc(-n2cc(C(=O)c3ccc(N4CCN(C)CC4)cc3)nn2)cc1Cl | 11.6
20 | CCOC(CNC(=O)Cn1nc(Cc2ccncc2)c2ccccc2c1=O)OCC | 19
21 | O=C1[C@@H]2[C@@H]3C[C@@H]([C@H]4ON=C(c5ccc(Cl)cc5Cl)[C@@H]34)[C@@H]2C(=O)N1C1CCCCC1 | -5.74
22 | O=C(CCN1CCN(c2ccccc2)CC1)c1ccc(Br)cc1 | -55.1

Row | Compound | hERG current change (%, negative = inhibition) at 10uM [%]
23 | COc1ccc(C2/C=C\CN(C(=O)Nc3ccccc3)CC(=O)N2Cc2ccc(F)cc2)cc1 (stereo not shown) | -2.9
24 | COc1cccc(OCC(=O)NNC(=O)c2cccs2)c1 | 6.63
25 | Oc1ccc(N2CCN(c3ccnc4cc(Cl)ccc34)CC2)cc1 | -22.7
26 | COc1cccc(NC(=O)c2ccc(CN3CCOCC3)cc2)c1 | 3.07
27 | Cc1ccc(-c2nc(NC(=O)CSc3nnc4scc(-c5ccccc5)n34)ns2)cc1 | -1.19
28 | COc1cccc(OCC(O)CN2CCOCC2)c1.Cl (stereo not shown) | 18.7
29 | Cc1ccc(N2CC(NC(=O)C(=O)c3c(C)[nH]c4ccccc34)CC2=O)cc1 (stereo not shown) | -47.8
30 | CN(Cc1nc(-c2ccccn2)no1)S(=O)(=O)c1ccc(Cl)cc1 | -10.3
31 | CSc1ncc(CN2CCN(C(C)C)C(CCO)C2)cn1 (stereo not shown) | -2.82
32 | CCOC(=O)N1CCN(C(=O)/C(=C/c2ccc(N(C)C)cc2)NC(=O)c2ccccc2)CC1 | -45.6
33 | Cc1c(OCC(=O)N2CCC(C(N)=O)CC2)ccc2c3c(c(=O)oc12)CCCC3 | 14.2
34 | CS(=O)(=O)N1CCC(C(=O)NCC2CCCO2)CC1 (stereo not shown) | 10.3
35 | O=[N+]([O-])c1cc(-c2csc(NCCc3nc4cc(C(F)(F)F)ccc4n3CCCO)n2)ccc1Cl | -3.59
36 | CCN(CC(=O)NCc1ccccc1Cl)CC(=O)Nc1c(F)cccc1F.O=C(O)C(=O)O | -9.59
37 | CCn1c(CNc2ccc(Cl)cc2)nnc1SCC(=O)NCc1ccccc1 | -44.4
38 | O=C(COC(=O)c1cc(S(=O)(=O)N2CCOCC2)c(Cl)cc1Cl)NC1CC1 | -8.9
39 | O=C(O)c1cccc(-n2nnnc2SCc2ccccn2)c1 | -23.1
40 | Cc1ccc(NC(=O)NNC(=O)c2ccccc2)cc1 | 10.6
41 | N#Cc1ccc(NCC(=O)Nc2ccc3c(c2)OCCO3)cc1 | -4.32
42 | Cc1cc(C)nc(SCc2nc3ccccc3n2C)n1 | -0.591
43 | O=C(O)c1cccnc1SCC(=O)N1CCCc2ccccc21 | 14.6
44 | CCc1ccc(NC(=O)CCNS(=O)(=O)c2cccc3nsnc23)cc1 | -14.9

Row | Compound | hERG current change (%, negative = inhibition) at 10uM [%]
45 | CCOC(=O)c1cc(CC)sc1NC(=O)c1ccc([N+](=O)[O-])c(N2CCOCC2)c1 | 1.43
46 | CCOc1cc(C2NC(=S)NC(C)=C2C(=O)Nc2ccc(OC)cc2)ccc1O (stereo not shown) | 5.86
47 | COC(=O)CC1C(=O)NCCN1C(=O)CSc1nnc(Nc2ccc(OC)cc2)s1 (stereo not shown) | -1.46
48 | COc1ccc(-c2c3c(=O)n(C)c(=O)n(C)c3cn2NC(C)=O)cc1 | 12.2
49 | C/C(=N\O)C(=O)NCCCNCCCN(C)C | 7.1
50 | O=C(O)c1ccc(OCC2CCCO2)cc1 (stereo not shown) | 9.96
51 | CSc1n[nH]c(NCc2ccccc2)n1 | 1.23
52 | CCOC(=O)c1[nH]c2ccc(Br)cc2c1NC(=O)CCN1CCOCC1 | 2.43
53 | COCCCn1c(C(C)C)nc2oc3cc(OC)ccc3c(=O)c2c1=O | -9.6
54 | CC1CCN(C(=O)C2CCCN(c3ncnc4c3nc3n4CCCCC3)C2)CC1 (stereo not shown) | -41.5
55 | COc1ccc(NC(=O)c2ccc(CN3CCc4ccccc4C3)cc2)c(OC)c1 | -8.73
56 | O=C1c2cccc3cc([N+](=O)[O-])cc(c23)C(=O)N1/N=C/c1ccc(O)cc1O | 5.25
57 | COc1ccc(N(CC(=O)N/N=C/c2ccc(C(=O)O)cc2)S(=O)(=O)c2ccc(NC(C)=O)cc2)cc1 | 0.241
58 | Cc1cc(/C=C2\C(=N)N3C(SCc4ccccc4)=NSC3=NC2=O)c(C)n1Cc1ccccc1 | -8.37
59 | CCOC(=O)N1CCN(c2c(NCc3ccccc3OC)c(=O)c2=O)CC1 | 0.238
60 | C=CC(=O)NCNC(=O)C=C | 21.2
61 | NC(=O)Cn1nnc(-c2ccc(CN3CCCCC3)cc2)n1 | 21.6
62 | O=C(Nc1ccccc1-c1ccccc1)c1ccc(NC(=O)c2ccco2)cc1 | -2.05
63 | O=C(CSc1nc(O)cc(=O)n1-c1ccc(Cl)c(Cl)c1)Nc1ccc(Cl)cc1Cl | 11.4
64 | COc1ccc(-n2cc(-c3ccccc3)c3c(N4CCN(CCO)CC4)ncnc32)cc1 | -42
65 | Cc1ccc(S(=O)(=O)Nc2cccc(-c3ccc(N4CCCCCC4)nn3)c2)cc1C | 21.8
66 | CC(Cl)C(=O)Nc1cc(C(F)(F)F)ccc1N1CCOCC1 (stereo not shown) | 2.38

Row | Compound | hERG current change (%, negative = inhibition) at 10uM [%]
67 | O=C(N/N=C/c1ccncc1)c1cc([N+](=O)[O-])cc([N+](=O)[O-])c1O | 4.15
68 | COc1cccc(-c2nn(C)c3sc(C(=O)NCc4ccco4)cc23)c1 | -0.35
69 | COc1ccc(S(=O)(=O)NCC2CCC(C(=O)NCc3ccc(F)cc3)CC2)cc1 (stereo not shown) | 16.7
70 | CCN(CC(=O)NC(C)C)C(=O)C(CCSC)NC(=O)c1cccc(C)c1 (stereo not shown) | 11
71 | COc1ccc(S(=O)(=O)N2CCOCC2)cc1NC(=O)CSc1n[nH]c(=O)n1C1CC1 | 5.83
72 | O=C(c1cccs1)N1CCN(c2ncccn2)CC1 | 0.299
73 | COc1cc2c(cc1OC)-c1cc3ccc(OC)c(OC)c3c[n+]1CC2.[Cl-] | -8.91
74 | Cc1nn(C)cc1CN(C)C(=O)CC12CC3CC(CC(C3)C1)C2 | 0.3
75 | CCN(CC)CCCNC(=O)c1ccccc1NC(=O)C1=CSCCO1 | -27.5
76 | CN(Cc1c(C(=O)N/N=C/c2ccccc2)nnn1-c1nonc1N)C1CCCCC1 | 8.4
77 | Cc1ccc(S(=O)(=O)N2CCCC(C(=O)N3CCN(c4ccccc4)CC3)C2)cc1 (stereo not shown) | -46.5
78 | CCOC(=O)COc1cc(OCC(=O)OCC)c2c3c(c(=O)oc2c1)CCCC3 | -8.06
79 | COC(=O)Nc1ccc(S(=O)(=O)N2c3ccccc3CCC2C)cc1 (stereo not shown) | -2.41
80 | COc1cc(C)c(S(=O)(=O)NCCCn2ccnc2)cc1C | 11.9
81 | CCOC(=O)c1cc(C)sc1NC(=O)CSc1nnnn1C | -22.7
82 | CCC(NC(=S)NC1CCCCC1)c1ccccc1 (stereo not shown) | 8.96
83 | Cc1ccc(Cn2cc(/C=C/C(=O)O)c(-c3ccccc3)n2)cc1 | 6.77
84 | CC(=O)N1c2ccc(S(=O)(=O)NCCC(=O)N3CCC(C)CC3)cc2CC1C (stereo not shown) | 12.7
85 | O=C(COc1ccc2ccccc2c1)Nc1cccc(C(=O)Nc2ccccc2C(=O)O)c1 | 2.39
